Out of some 110,000 compounds screened, about 230 (0.21%) showed an effect of 50% or more. The list shows a part of the results.
What follows are compounds tested against DPAP1 (Plasmodium falciparum, UniProt Q8IIJ9) (assay: primary screen, percent inhibition; read by cleavage of a fluorogenic dipeptide substrate; higher = more effect of the substance).
Design: species or system P. falciparum D10 trophozoite lysates; single well
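Further: 30 min substrate incubation versus DMSO and 10 µM JCP410 controls.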

Sequence of DPAP1 (Q8IIJ9 whole entry, looked up): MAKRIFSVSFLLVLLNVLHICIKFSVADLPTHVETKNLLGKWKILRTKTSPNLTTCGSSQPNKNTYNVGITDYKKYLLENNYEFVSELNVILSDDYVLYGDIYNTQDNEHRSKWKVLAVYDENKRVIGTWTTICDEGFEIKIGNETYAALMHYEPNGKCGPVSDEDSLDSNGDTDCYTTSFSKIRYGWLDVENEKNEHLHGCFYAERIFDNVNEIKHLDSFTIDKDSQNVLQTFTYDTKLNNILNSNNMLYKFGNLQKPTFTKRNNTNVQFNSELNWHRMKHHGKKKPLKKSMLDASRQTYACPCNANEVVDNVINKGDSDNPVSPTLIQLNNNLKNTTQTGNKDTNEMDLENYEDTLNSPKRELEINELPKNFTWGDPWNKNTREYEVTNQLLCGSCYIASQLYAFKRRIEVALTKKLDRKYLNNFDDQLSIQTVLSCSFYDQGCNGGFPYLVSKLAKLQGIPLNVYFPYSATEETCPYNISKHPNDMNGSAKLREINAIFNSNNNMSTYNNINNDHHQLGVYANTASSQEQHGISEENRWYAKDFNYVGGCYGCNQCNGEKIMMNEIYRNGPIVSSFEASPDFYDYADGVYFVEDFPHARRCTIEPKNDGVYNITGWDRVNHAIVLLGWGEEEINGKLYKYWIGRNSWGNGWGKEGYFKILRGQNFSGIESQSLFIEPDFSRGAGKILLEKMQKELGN

SMILES | % Inhibition @ 10 uM [%]
COc1cc(OC)cc(-n2nnc(-c3nsc(NC(=O)c4ccc(C)c(C)c4)n3)c2C)c1 | -4.94
O=C(Nc1cccnc1)c1nc(-c2ccc(Cl)cc2)n2c1CCCCC2 | 4.17
CN1CCN(C)CC(OC(c2ccccc2)c2ccccc2)C1 | -0.312
CCCCN/C=C1/C(=O)NC(=S)N(c2ccccc2C)C1=O | 5.68
CN(C)c1ccc(C(O)c2nccn2C)cc1 (stereo not shown) | 3.22
CC(=O)NS(=O)(=O)c1cnccc1Sc1cccc(C(F)(F)F)c1 | -3.56
O=C(c1ccco1)N1CCN(C2CCC(c3ccccc3)CC2)CC1 (stereo not shown) | -0.274
Cc1c(C(=O)N(C)Cc2ccccc2)sc2ncn(CC(=O)N3CCCCC3)c(=O)c12 | -0.458
CCOC(=O)c1sc(NC(=O)c2cncc(Br)c2)nc1C | 3.66
O=C(O)c1nccnc1C(=O)Nc1ccc(Br)cn1 | 0.66
CCC(O)c1ccc(OCc2ccc(C(=O)OC)o2)c(OC)c1 (stereo not shown) | 0.413
OC1(c2ccc(Cl)cc2)CCN(Cc2cccc(Cl)c2Cl)CC1 | -3.5
CC(C)(CO)NC(=O)c1ccc(-c2ccccc2)cc1 | 0.843
Cc1ccc(C(=O)N[C@@H](CC2CCCCC2)C(=O)NCC#N)cc1 | -5.21
CCOC(=O)c1c(C)n(-c2ccc(Br)cc2)c2ccc(OC)cc12 | -0.467
CCOC(=O)c1[nH]c(C)c(C(=O)NC2CCCC(C)C2C)c1C (stereo not shown) | -4.68
Cc1cccn2c(=O)c(/C=C(\C#N)c3nc4ccccc4[nH]3)c(Oc3ccccc3)nc12 | -1.43
Cc1ccc2c(CC(=O)Nc3nc(C)c(C(=O)OCC(C)C)s3)coc2c1C | -2.4
C=CCc1cccc2cc(C(=O)NCc3ccco3)c(=O)oc12 | -4.77
CCCC(=O)N1CCN(Cc2ccccc2)CC1 | -4.59
CN(C)c1nc2ccc(OCCN3CCOCC3)cc2s1 | 0.266
CC(C)(CNC(=O)Cc1ccccc1)CNC(=O)Cc1ccccc1 | 0.389

SMILES | % Inhibition @ 10 uM [%]
COc1cc(C2C(C#N)=C(N)OC3=C2C(=O)CC(C)(C)C3)cc(OC)c1OC (stereo not shown) | 2.38
COc1ccc(S(=O)(=O)NCc2ccc(C(=O)N(C)Cc3ccco3)cc2)cc1 | -5.22
CCCCCO/C(O)=C1/C(C)=Nc2ncnn2C1c1cc(Br)ccc1OC (stereo not shown) | -3.85
COc1cccc(CN2CCN(Cc3cc(OC)ccc3OC)CC2)c1 | 3.93
COC(=O)c1ccc(CSc2nc3ccncc3n2Cc2ccc(C)cc2)cc1 | -3.34
Cc1nc2sccn2c(=O)c1S(=O)(=O)NCc1ccc2c(c1)OCO2 | 4.95
OC1(c2ccc(OC(F)F)cc2)C[N+](c2ccccc2)=C2CCCCCN21 (stereo not shown) | -5.08
CCOC(=O)N1CCN(C(=O)Nc2sc3nc4n(c(=O)c3c2C)CCC(C)CC4)CC1 (stereo not shown) | -1.7
CC1(C)Cc2cc3c(cc2C(SCc2ccccc2)=N1)OCCO3 | -0.161
Cc1ccc(-c2nc3ccccc3c(C(=O)O)c2C)s1 | 2.25
COc1ccc(S(=O)(=O)Cc2ccc(C(=O)N3CCN(c4ncccn4)CC3)o2)cc1 | -0.971
CC(=O)Nc1cccc(C(=O)Nc2ccccc2Cl)c1 | -2
CN1CCCN(Cc2cc(F)ccc2F)CC1 | -2.54
CCc1c(CN2CCc3ccccc3C2)csc1C | -3.61
Cn1c(-c2ccc3c(c2)OCO3)cnc1NCc1cc(Br)ccc1F | -1.11
COC(=O)c1c(NC(=O)c2ccc(Br)o2)sc2c1CCC(C)C2 (stereo not shown) | -4.86
CCOc1ccc(C(=O)Nc2nc(-c3cc4ccccc4oc3=O)cs2)cc1 | 1.39
COc1ccc(C2C(C#N)=C(N)N(c3ccc(OC)cc3)C3=C2C(=O)CCC3)cc1 (stereo not shown) | 4.01
CC1(C)CC2(CC3(C1)Nc1ccccc1S3)Nc1ccccc1S2 (stereo not shown) | 6.02
COc1cccc(C2C(C#N)=C(N)Oc3nc(SC)nc(N)c32)c1 (stereo not shown) | -3.34
CC(Cc1ccc(OCCN2CCCCC2)cc1)N(C)C (stereo not shown) | -3.65
COC(=O)c1oc2ccc(OC)cc2c1NC(=O)c1ccc(C(F)(F)F)cc1 | -6.84

SMILES | % Inhibition @ 10 uM [%]
O=C(NCc1ccccc1Cl)C(Cc1ccccc1)NS(=O)(=O)c1cccc2nsnc12 (stereo not shown) | 2
COc1cccc(C2(O)CC(C(F)(F)F)=NN2C(=O)COc2ccccc2)c1 (stereo not shown) | -2.66
COc1cc(C(=O)NCc2cccc3ccccc23)cc(OC)c1OC | 0.907
CCCN1CCC(NCC2CCCO2)CC1 (stereo not shown) | -4.01
CC(C)CC(NC(=O)c1ccc(-c2csc(-c3cccnc3)n2)cc1)C(=O)NCC#N (stereo not shown) | -2.35
COc1ccc(NC(=O)CN(c2cc(C)ccc2OC)S(=O)(=O)c2ccc(C)cc2)cc1 | -4.13
COc1ccc(-c2nnc3sc(NC(=O)COc4ccccc4C)nn23)cc1OC | -0.959
COc1cc(C(=O)NCCc2nc3ccccc3n2C)cc(OC)c1OC | 3.49
FC(F)(F)c1ccc(NC2CCCC2)nc1 | -6.7
COc1ccccc1CNC(=O)Nc1noc2c1COc1ccccc1-2 | -0.539
Cc1ccc(C)c(NC(=O)CCCC(=O)O)c1 | -0.902
O=C(c1cnn2c(C(F)(F)F)cc(-c3ccccc3)nc12)N1CCOCC1 | 14.4
Cc1nnc(Sc2nc3c(c(=O)[nH]c(=O)n3C)n2Cc2ccccc2Cl)s1 | -2.71
CC1CCN(c2nc3ccc(C(=O)N4CCC5(CC4)OCCO5)cc3s2)CC1 | -2.37
N#CC1=C(SCc2ccccc2)NC(=O)C(C#N)C12CCCC2 (stereo not shown) | -8.03
Cc1ccc(CNc2nc3ccccc3n3nnnc23)cc1 | -1.59
Cc1ccc(NC(=O)C(c2ccccc2)c2ccccc2)c([N+](=O)[O-])c1 | 3.03
c1ccc(CCc2nn3c(COc4ccccc4)nnc3s2)cc1 | 4.96
CC(CCc1ccccc1)NC(=O)Cn1ncc2c3ccccc3nc-2c1O (stereo not shown) | 4.61
CCCSCCCNC(=O)c1ccc2c(c1)sc1nc(-c3ccc(F)cc3)cn12 | 1.92
